Measurements taken from PMC6602295, “Structural mechanism for guanylate-binding proteins (GBPs) targeting by the Shigella E3 ligase IpaH9.8” (PLoS Pathogens, 2019).
Results are given in words; binding and its absence hold for the method and conditions named. In cells and extracts the contact can be indirect. Some binding calls cover weakened binding; strength is not graded here. For some assays here: Sequences can lack the tags named with a protein.

Columns and labels:
Flag tagged GBP4 (human) = molecular target: T1, Flag tagged GBP4 (human) (UniProt Q96PP9); assay: co-IP; Flag tagged GBPs co-expressed with 6xMyc tagged IpaH9.8-C337A or its mutants in HEK293T; GBPs immunoprecipitated with Flag-M2 beads, eluted with 3x Flag peptide, associated IpaH detected by immunoblotting; lysis buffer 25 mM Tris-HCl pH 8.0, 2 mM MgCl2, 1 mM GTP, 0.5% Triton X-100
T1 sequence: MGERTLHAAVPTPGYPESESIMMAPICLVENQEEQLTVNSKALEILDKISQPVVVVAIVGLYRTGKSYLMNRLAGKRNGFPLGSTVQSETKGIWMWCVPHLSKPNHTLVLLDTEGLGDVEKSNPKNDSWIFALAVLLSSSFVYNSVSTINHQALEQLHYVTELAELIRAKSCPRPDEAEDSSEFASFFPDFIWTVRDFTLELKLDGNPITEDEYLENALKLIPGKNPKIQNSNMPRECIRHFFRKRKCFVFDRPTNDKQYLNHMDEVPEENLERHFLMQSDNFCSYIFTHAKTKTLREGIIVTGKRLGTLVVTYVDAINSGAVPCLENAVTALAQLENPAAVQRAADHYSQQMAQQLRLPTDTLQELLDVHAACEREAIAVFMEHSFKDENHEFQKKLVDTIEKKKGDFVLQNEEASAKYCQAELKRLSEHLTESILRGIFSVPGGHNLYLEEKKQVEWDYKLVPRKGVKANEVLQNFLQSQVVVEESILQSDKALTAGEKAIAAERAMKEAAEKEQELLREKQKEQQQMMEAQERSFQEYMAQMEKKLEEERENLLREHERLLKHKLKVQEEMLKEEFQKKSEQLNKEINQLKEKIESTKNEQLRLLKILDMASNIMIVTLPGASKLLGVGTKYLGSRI

Flag tagged GBP6 (human) = molecular target: T2, Flag tagged GBP6 (human) (UniProt Q6ZN66); assay: as above
T2 sequence: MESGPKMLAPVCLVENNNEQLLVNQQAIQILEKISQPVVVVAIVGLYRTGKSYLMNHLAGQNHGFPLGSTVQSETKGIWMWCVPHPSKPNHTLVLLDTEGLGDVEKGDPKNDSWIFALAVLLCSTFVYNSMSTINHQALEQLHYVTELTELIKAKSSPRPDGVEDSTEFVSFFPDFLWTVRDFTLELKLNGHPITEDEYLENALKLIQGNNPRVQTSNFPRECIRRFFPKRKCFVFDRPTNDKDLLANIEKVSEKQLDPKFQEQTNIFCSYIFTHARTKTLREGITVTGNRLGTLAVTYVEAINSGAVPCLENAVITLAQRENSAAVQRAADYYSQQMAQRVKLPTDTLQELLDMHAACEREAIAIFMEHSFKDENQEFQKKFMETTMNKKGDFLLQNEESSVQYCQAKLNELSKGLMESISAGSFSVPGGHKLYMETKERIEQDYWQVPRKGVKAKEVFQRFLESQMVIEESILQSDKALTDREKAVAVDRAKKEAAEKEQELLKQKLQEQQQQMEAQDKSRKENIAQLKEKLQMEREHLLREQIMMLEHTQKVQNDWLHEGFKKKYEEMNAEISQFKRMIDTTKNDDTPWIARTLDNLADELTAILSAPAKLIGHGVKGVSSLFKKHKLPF

Flag tagged GBP2 (human) = molecular target: T3, Flag tagged GBP2 (human) (UniProt P32456); assay: as above
T3 sequence: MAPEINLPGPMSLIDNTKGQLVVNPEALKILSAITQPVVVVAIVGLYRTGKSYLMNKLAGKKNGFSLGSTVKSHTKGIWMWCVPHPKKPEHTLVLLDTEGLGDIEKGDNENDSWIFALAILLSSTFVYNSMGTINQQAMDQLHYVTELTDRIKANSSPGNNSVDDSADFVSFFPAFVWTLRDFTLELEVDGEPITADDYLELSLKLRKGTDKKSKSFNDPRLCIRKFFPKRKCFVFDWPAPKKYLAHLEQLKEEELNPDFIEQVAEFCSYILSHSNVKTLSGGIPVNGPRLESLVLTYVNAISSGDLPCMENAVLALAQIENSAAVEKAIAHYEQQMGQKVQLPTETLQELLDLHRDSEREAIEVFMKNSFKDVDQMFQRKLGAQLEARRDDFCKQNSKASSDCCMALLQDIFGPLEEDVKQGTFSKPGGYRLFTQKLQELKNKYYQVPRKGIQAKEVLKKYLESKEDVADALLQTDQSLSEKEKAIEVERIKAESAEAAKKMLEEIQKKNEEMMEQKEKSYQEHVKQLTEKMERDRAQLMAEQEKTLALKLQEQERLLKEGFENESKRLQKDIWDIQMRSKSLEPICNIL

Flag tagged GBP1 (human) = molecular target: T4, Flag tagged GBP1 (human) (UniProt P32455); assay: as above
T4 sequence: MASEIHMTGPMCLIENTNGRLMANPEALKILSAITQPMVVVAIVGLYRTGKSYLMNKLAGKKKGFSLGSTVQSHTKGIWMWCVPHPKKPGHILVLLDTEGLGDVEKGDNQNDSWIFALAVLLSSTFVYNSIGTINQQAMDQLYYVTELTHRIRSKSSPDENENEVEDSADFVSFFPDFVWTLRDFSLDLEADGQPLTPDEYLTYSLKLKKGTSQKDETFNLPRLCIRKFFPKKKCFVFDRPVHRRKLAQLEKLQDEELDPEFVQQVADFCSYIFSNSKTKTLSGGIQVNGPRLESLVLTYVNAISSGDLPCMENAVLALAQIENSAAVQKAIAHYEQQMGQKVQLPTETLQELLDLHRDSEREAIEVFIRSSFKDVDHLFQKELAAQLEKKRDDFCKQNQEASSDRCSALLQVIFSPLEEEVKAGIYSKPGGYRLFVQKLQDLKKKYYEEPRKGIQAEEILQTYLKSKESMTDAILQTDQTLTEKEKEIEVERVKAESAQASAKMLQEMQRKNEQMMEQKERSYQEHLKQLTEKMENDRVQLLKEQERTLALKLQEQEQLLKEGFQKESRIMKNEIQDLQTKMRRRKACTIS

[1] = molecular target: T5, GBP3-M (GBP3 with Lys105 mutated to Glu) (human) (UniProt Q9H0R5); assay: co-IP; HA or Flag tagged GBPs co-expressed with Flag or Myc tagged IpaH9.8-C337A in HEK293T; immunoprecipitation with Flag-M2 beads from the lysates, associated proteins analysed by immunoblotting; lysis buffer with 2 mM MgCl2 and 1 mM GTP
T5 sequence: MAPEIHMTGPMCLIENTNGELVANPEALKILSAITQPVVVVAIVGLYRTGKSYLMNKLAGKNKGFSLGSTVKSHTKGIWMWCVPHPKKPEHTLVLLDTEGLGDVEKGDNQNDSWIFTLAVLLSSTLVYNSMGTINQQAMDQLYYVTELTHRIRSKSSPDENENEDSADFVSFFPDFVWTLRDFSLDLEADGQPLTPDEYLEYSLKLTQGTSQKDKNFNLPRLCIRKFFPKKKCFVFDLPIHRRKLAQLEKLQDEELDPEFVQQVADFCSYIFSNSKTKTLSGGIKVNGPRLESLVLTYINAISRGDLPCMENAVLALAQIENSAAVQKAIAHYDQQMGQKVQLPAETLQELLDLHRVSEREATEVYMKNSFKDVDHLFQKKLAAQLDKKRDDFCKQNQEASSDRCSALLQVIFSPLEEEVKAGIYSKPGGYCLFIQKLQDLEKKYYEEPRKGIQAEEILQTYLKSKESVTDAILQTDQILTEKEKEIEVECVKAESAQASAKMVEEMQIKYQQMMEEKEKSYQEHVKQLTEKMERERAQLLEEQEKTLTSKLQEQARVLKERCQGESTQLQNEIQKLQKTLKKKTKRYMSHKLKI

Substance | binding (Flag tagged GBP4 (human)) | binding (Flag tagged GBP6 (human)) | binding (Flag tagged GBP2 (human)) | binding (Flag tagged GBP1 (human)) | binding [1]
6xMyc tagged IpaH9.8-C337A (from UniProt Q8VSC3 1-545) (enzyme) | binds | binds | binds | binds | –
Flag or Myc tagged IpaH9.8-C337A (Fig 3b) (from UniProt Q8VSC3 1-545) (enzyme) | – | – | – | – | binds
6xMyc tagged IpaH9.8-Y86A/Q88A/C337A (from UniProt Q8VSC3 1-545) (enzyme) | no binding | no binding | no binding | – | –
